Experimental data as given in PMC6794377.
Positions count from the first letter of the chain named. Results are given in words; binding and its absence hold for the method and conditions named. For part of these data: In cells and extracts the contact can be indirect. Some results given as binding are weak or reduced against the parent protein; the word gives no strength. For part of these data: Tags and fused reporters may be left off the sequences shown.

Columns and labels:
[1] = target: T1, TLN161, N-terminal appended domain of hThrRS-L (Met1-Ile161), Gal4 DNA binding domain fusion (human) (UniProt A2RTX5); test: two-hybrid; TLN161 linker mutants with p43 and ArgRS; data not shown
T1 sequence: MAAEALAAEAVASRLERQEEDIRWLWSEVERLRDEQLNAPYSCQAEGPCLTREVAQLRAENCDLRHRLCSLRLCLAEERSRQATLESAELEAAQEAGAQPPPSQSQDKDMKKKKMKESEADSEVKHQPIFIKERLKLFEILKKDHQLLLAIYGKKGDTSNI

[2] = target: T2, TLN161-M1/A, Gal4 DNA binding domain fusion (human) (UniProt A2RTX5); test: as above
T2 sequence: T1 sequence with D34A, E35A, Q36A, L37A

[3] = target: T3, TLN161-M2/A, Gal4 DNA binding domain fusion (human) (UniProt A2RTX5); test: as above
T3 sequence: T1 sequence with Q44A, E46A

[4] = target: T4, TLN161-M3/A, Gal4 DNA binding domain fusion (human) (UniProt A2RTX5); test: as above
T4 sequence: T1 sequence with L50A, T51A, R52A, E53A, V54A, Q56A

[5] = target: T5, TLN161(1-74), N-terminal part of TLN161, Gal4 DNA binding domain fusion (human) (UniProt A2RTX5); test: two-hybrid; pairwise: pGADT7 construct and pGBKT7 construct together in Y2HGold; growth on QDO/X/A (SD/QDO/X) plates
T5 sequence: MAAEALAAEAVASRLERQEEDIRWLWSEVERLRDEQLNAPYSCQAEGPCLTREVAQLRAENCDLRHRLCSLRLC

[6] = target: T6, TLN161(75-161), C-terminal part of TLN161, Gal4 DNA binding domain fusion (human) (UniProt A2RTX5); test: as above
T6 sequence: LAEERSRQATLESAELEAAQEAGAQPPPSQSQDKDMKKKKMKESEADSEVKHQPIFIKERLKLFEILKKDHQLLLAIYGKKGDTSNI

[7] = target: T1, TLN161, N-terminal appended domain of hThrRS-L (Met1-Ile161), Gal4 DNA binding domain fusion (human); test: as above
[8] = target: T7, TLN161-Ha/A, Gal4 DNA binding domain fusion (human) (UniProt A2RTX5); test: as above
T7 sequence: T1 sequence with L15A, I22A, L25A, V29A, L32A

[9] = target: T8, TLN161-Ha/Hb/A, Gal4 DNA binding domain fusion (human) (UniProt A2RTX5); test: as above
T8 sequence: T1 sequence with L15A, I22A, L25A, V29A, L32A, L57A, L64A, L68A, L71A, L75A

[10] = target: T9, TLN161-Hb/A, Gal4 DNA binding domain fusion (human) (UniProt A2RTX5); test: as above
T9 sequence: T1 sequence with L57A, L64A, L68A, L71A, L75A

[11] = target: T1, TLN161, N-terminal appended domain of hThrRS-L (Met1-Ile161), Gal4 DNA binding domain fusion (human); test: two-hybrid; screen: Gal4 DNA binding domain-TLN161 in Y2HGold mated with Y187 carrying a normalized Mate & Plate human cDNA library; QDO/X/A plates
[12] = target: T10, C-terminal FLAG-tagged human threonyl-tRNA synthetase-like protein (hThrRS-L-FLAG) (human) (UniProt A2RTX5); test: co-IP; both proteins overexpressed with different tags in HEK293T; lysis buffer 50 mM Tris-HCl pH 7.5, 150 mM NaCl, 5 mM EDTA, 1% Triton X-100; antibody overnight, Dynabeads protein G, 4°C; western blotting
T10 sequence: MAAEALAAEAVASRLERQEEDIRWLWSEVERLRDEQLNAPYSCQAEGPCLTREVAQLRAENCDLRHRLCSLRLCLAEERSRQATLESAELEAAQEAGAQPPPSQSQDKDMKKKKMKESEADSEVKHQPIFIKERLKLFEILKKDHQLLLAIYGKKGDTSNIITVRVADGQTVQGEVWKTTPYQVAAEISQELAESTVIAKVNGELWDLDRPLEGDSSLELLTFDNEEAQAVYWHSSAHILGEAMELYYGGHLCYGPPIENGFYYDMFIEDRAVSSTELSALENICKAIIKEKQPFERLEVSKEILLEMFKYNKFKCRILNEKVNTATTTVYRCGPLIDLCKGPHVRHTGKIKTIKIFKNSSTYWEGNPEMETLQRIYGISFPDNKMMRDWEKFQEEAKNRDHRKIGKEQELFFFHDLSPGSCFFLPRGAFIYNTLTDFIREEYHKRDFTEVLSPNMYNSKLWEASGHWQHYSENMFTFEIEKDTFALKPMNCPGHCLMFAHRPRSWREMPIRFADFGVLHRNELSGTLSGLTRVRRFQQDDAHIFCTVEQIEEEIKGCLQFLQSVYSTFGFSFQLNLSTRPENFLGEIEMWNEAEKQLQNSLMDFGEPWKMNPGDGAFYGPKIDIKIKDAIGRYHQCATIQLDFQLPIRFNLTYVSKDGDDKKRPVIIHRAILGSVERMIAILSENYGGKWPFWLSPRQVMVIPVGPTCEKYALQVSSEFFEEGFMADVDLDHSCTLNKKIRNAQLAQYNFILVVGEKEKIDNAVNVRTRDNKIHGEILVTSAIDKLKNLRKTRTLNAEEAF

[13] = target: N-terminal Myc-tagged human ThrRS (Myc-hThrRS) (human) (UniProt P26639); test: as above
[14] = target: T11, native mouse ThrRS-L (mThrRS-L) (mouse (endogenous in muscle tissue and NIH/3T3)) (UniProt Q8BLY2); test: SEC; NIH/3T3 whole cell lysate on Superose-6, 50 mM Tris-HCl pH 7.5, 50 mM NaCl, 1 mM PMSF, 1 mM DTT; fractions immunoblotted
T11 sequence: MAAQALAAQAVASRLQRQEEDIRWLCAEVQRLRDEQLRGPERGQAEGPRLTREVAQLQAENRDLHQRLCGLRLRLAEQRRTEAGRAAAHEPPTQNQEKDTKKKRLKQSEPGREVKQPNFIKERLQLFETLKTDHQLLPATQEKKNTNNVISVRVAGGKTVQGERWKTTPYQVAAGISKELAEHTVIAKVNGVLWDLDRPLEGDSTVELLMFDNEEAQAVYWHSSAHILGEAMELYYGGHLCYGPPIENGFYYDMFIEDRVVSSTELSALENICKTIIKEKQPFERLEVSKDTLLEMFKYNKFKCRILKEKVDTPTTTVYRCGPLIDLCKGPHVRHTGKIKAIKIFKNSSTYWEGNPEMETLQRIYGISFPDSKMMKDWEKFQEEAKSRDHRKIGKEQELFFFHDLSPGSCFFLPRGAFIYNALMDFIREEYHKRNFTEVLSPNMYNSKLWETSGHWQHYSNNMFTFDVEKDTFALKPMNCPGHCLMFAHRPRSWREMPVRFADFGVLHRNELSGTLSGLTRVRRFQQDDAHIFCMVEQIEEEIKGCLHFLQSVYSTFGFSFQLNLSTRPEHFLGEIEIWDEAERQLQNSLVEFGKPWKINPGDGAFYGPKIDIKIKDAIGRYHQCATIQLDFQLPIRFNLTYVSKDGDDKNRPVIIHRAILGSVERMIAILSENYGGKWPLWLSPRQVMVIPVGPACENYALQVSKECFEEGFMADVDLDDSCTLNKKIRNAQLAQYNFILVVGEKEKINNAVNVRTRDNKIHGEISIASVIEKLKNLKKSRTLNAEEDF

[15] = target: T11, native mouse ThrRS-L (mThrRS-L) (mouse (endogenous in muscle tissue and NIH/3T3)); test: SEC; mouse muscle tissue extract on Superose-6, 50 mM Tris-HCl pH 7.5, 50 mM NaCl, 1 mM PMSF, 1 mM DTT; fractions immunoblotted

B1: p43 (AIMP1), 336-aa isoform, Gal4 activation domain fusion (protein, UniProt Q12904-2 1-336)
chain: MLPAVAVSEPVVLRFMIFCRLLAKMANNDAVLKRLEQKGAEADQIIEYLKQQVSLLKEKAILQATLREEKKLRVENAKLKKEIEELKQELIQAEIQNGVKQIPFPSGTPLHANSMVSENVIQSTAVTTVSSGTKEQIKGGTGDEKKAKEKIEKKGEKKEKKQQSIAGSADSKPIDVSRLDLRIGCIITARKHPDADSLYVEEVDVGEIAPRTVVSGLVNHVPLEQMQNRMVILLCNLKPAKMRGVLSQAMVMCASSPEKIEILAPPNGSVPGDRITFDAFPGEPDKELNPKKKIWEQIQPDLHTNDECVATYKGVPFEVKGKGVCRAQTMSNSGIK
Which binding [1] does the source give for B1 here?
The binding was “binds”.

What about the binding [2] of the same binder?
Its binding is “binds”.

What about the binding [3] of the same binder?
Its binding is “binds”.

What about the binding [4] of the same binder?
The binding was “binds”.

And the binding [5]?
Its binding is “binds”.

What about the binding [6] of the same binder?
The binding was “no binding”.

What about the binding [7] of the same binder?
Its binding is “binds”.

And the binding [8]?
Its binding is “binds”.

What about the binding [9] of the same binder?
Its binding is “no binding”.

And the binding [10]?
Its binding is “binds”.

What about the binding [11] of the same binder?
Its binding is “binds”.

B2: N-terminal Myc-tagged human ThrRS (Myc-hThrRS) (enzyme, UniProt P26639 1-723)
chain: MFEEKASSPSGKMGGEEKPIGAGEEKQKEGGKKKNKEGSGDGGRAELNPWPEYIYTRLEMYNILKAEHDSILAEKAEKDSKPIKVTLPDGKQVDAESWKTTPYQIACGISQGLADNTVIAKVNNVVWDLDRPLEEDCTLELLKFEDEEAQAVYWHSSAHIMGEAMERVYGGCLCYGPPIENGFYYDMYLEEGGVSSNDFSSLEALCKKIIKEKQAFERLEVKKETLLAMFKYNKFKCRILNEKVNTPTTTVYRCGPLIDLCRGPHVRHTGKIKALKIHKNSSTYWEGKADMETLQRIYGISFPDPKMLKEWEKFQEEAKNRDHRKIGRDQELYFFHELSPGSCFFLPKGAYIYNALIEFIRSEYRKRGFQEVVTPNIFNSRLWMTSGHWQHYSENMFSFEVEKELFALKPMNCPGHCLMFDHRPRSWRELPLRLADFGVLHRNELSGALTGLTRVRRFQQDDAHIFCAMEQIEDEIKGCLDFLRTVYSVFGFSFKLNLSTRPEKFLGDIEVWDQAEKQLENSLNEFGEKWELNSGDGAFYGPKIDIQIKDAIGRYHQCATIQLDFQLPIRFNLTYVSHDGDDKKRPVIVHRAILGSVERMIAILTENYGGKWPFWLSPRQVMVVPVGPTCDEYAQKVRQQFHDAKFMADIDLDPGCTLNKKIRNAQLAQYNFILVVGEKEKISGTVNIRTRDNKVHGERTISETIERLQQLKEFRSKQAEEEF
For B2, which binding [12] is on record?
The binding was “binds”.

And the binding [13]?
The binding was “binds”.

B3: mouse p43, endogenous (protein, UniProt P31230 1-310)
chain: MATNDAVLKRLEQKGAEADQIIEYLKQQVALLKEKAILQATMREEKKLRVENAKLKKEIEELKQELILAEIHNGVEQVRVRLSTPLQTNCTASESVVQSPSVATTASPATKEQIKAGEEKKVKEKTEKKGEKKEKQQSAAASTDSKPIDASRLDLRIGCIVTAKKHPDADSLYVEEVDVGEAAPRTVVSGLVNHVPLEQMQNRMVVLLCNLKPAKMRGVLSQAMVMCASSPEKVEILAPPNGSVPGDRITFDAFPGEPDKELNPKKKIWEQIQPDLHTNAECVATYKGAPFEVKGKGVCRAQTMANSGIK
What does the source list for B3?
binding [14]: binds; binding [15]: binds
